Consider 50 compounds from article PMC6919601, “Identification of Plasmodium dipeptidyl aminopeptidase allosteric inhibitors by high throughput screening” (PLoS ONE, 2019).

Among all 110,000 compounds or so, about 230 (0.21%) showed an effect of 50% or more. This is one part of the list.
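Further: 30 min substrate incubation versus DMSO and 10 µM JCP410 controls.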

The target in the test is DPAP1 (Plasmodium falciparum, UniProt Q8IIJ9). Nature of the test: primary screen, percent inhibition; read by cleavage of a fluorogenic dipeptide substrate; higher = more effect of the substance. Details: species or system P. falciparum D10 trophozoite lysates; single well.
Chain of DPAP1 (Q8IIJ9 whole entry, looked up): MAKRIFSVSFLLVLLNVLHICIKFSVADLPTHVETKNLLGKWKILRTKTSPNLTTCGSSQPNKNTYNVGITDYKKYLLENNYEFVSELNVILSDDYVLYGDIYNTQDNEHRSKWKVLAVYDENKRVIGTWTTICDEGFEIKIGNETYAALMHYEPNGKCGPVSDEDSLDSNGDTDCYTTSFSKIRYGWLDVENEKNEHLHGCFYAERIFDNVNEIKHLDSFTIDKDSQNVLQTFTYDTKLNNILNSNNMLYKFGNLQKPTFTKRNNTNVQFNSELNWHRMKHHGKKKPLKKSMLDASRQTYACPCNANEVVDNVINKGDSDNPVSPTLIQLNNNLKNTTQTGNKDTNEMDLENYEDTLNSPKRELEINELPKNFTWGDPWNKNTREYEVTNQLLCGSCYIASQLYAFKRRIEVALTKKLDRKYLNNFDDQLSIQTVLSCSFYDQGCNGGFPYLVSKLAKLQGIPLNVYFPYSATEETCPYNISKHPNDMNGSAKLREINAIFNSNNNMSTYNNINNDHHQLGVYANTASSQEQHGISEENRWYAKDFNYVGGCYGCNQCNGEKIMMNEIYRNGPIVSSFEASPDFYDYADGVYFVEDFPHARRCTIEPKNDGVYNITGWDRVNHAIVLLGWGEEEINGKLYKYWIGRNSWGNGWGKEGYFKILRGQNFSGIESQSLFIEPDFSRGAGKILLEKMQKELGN
`Cc1nc2c(-c3ccccc3)c(C)nn2c(C)c1CC(=O)NCC(C)c1ccccc1` (centres unmarked): the “% Inhibition @ 10 uM” value is on record as -6.09%.
Consider `Cc1cc(C)c(S(=O)(=O)NCC(=O)N2CCc3ccccc3C2)c(C)c1`, for which the “% Inhibition @ 10 uM” value is reported as 2.98%.
In the case of `CCn1c2ccccc2c2cc(CN3CCN(c4ccc([N+](=O)[O-])cc4)CC3)ccc21`, the “% Inhibition @ 10 uM” value is recorded as -0.969%.
With `COc1ccc(-c2nc(CSCC(=O)N3CCN(C4CCCCC4)CC3)c(C)o2)cc1OC`, the “% Inhibition @ 10 uM” value turned out to be 3.93%.
With `Cc1ccc(C2C(C#N)=C(N)Oc3[nH]c(-c4ccccc4)nc32)o1` (centres unmarked), the “% Inhibition @ 10 uM” value is given as -0.25%.
For the compound `COCCn1c(=O)c(C#N)cc2c(=O)n3cccc(C)c3nc21`, the “% Inhibition @ 10 uM” value worked out at 4.3%.
`COc1ccc(S(=O)(=O)NCC(=O)NC2CC2)cc1OC`: the “% Inhibition @ 10 uM” value is given as -2.82%.
On to `Cc1noc2ncnc(N3CCC(c4ccccc4)C3)c12` (centres unmarked), for which the “% Inhibition @ 10 uM” value is recorded as -3.08%.
With `COC(=O)c1ccc(/C=c2\sc3nc(-c4ccc(Br)cc4)nn3c2=O)cc1` the figure was -5.2%.
`COc1ccc(NC(=O)CSc2nc3c(c(-c4ccccc4)c2C#N)CN(C)CC3)cc1OC`: the “% Inhibition @ 10 uM” value was found to be 0.851%.
Turning to `COc1ccccc1NC(=O)CN(Cc1ccc(C)cc1)S(=O)(=O)c1ccc(C)cc1`, the “% Inhibition @ 10 uM” value is given as -4.63%.
Take `CCOc1ccc(-c2cn(-c3ccc(C)c(F)c3)c(O)n2)cc1`: the “% Inhibition @ 10 uM” value was found to be 2.4%.
In the case of `CN(C)CCN(Cc1ccco1)C(=O)c1oc2ccccc2c1NC(=O)COc1ccccc1`, the “% Inhibition @ 10 uM” value is -0.528%.
Take `CCN(CC)CCCNc1cnnc2c(Cl)cccc12`: the “% Inhibition @ 10 uM” value is -4.4%.
As to `CC(=O)Nc1ccc(NC(=O)C(C)N(c2ccccc2)S(C)(=O)=O)cc1` (centres unmarked), the “% Inhibition @ 10 uM” value is -7.27%.
On to `CN(c1cccc2cccnc12)S(=O)(=O)c1ccccc1`, for which the “% Inhibition @ 10 uM” value was -7.93%.
With `COc1ccc(C(=O)c2cnc3ccc(OC)cc3c2N2CCCC2)cc1`, the “% Inhibition @ 10 uM” value is given as 0.851%.
On to `O=C(COc1ccccc1)Nc1c(-c2ccc(F)cc2)nc2ccccn12`, for which the “% Inhibition @ 10 uM” value was -2.74%.
For the compound `Cc1ccc(-c2c(C#N)c(N)nc3c2CCCCCC3)cc1`, the “% Inhibition @ 10 uM” value is -4.32%.
With `CC(C)n1c(CCNC(=O)c2ccccc2)nc2ccccc21` the figure was -0.58%; with `CN(C)c1nc(Oc2ccc(O)nn2)nc(N2CCOCC2)n1`, -1.11%.
Regarding `CCOc1cc(C2NC(C(=O)O)CS2)ccc1OCc1cccc(F)c1` (centres unmarked), the “% Inhibition @ 10 uM” value was -8.55%.
With `O=C(CSCc1ccc(Cl)cc1)NC1CC2CCC1C2` (centres unmarked) the figure was -2.24%; with `OCC1CCCN1C1CC2CCC1C2` (centres unmarked), 3.24%.
With `COc1ccc(C(=O)N(Cc2ccc(N(C)C)cc2)C2CCS(=O)(=O)C2)cc1` (centres unmarked) the figure was 3.74%; with `COc1ccc(N2C(=O)C(Cl)=C(Nc3ccccc3)C2=O)cc1`, -3.19%.
For `COc1ccc(C2(C#N)CCOCC2)cc1OC`, the “% Inhibition @ 10 uM” value is on record as 0.392%.
In the case of `N#C/C(=C\c1c[nH]nc1-c1ccc(F)cc1)c1nn(-c2ccccc2)c(N)c1C#N`, the “% Inhibition @ 10 uM” value was -3.04%.
With `Cc1ccc(S(=O)(=O)N(CC(=O)NC2CCCC2)c2cccc(C)c2)cc1`, the “% Inhibition @ 10 uM” value is -1.61%.
In the case of `COc1ccc(C2C(C#N)=C(N)OC3=C2C(=O)CC(c2ccccc2)C3)cc1Br` (centres unmarked), the “% Inhibition @ 10 uM” value is -1.93%.
With `Cc1cccc(C(=O)O/N=C(\c2ccccc2)c2cccnc2)c1`, the “% Inhibition @ 10 uM” value was -2.87%.
In the case of `OCCSc1ccc(Cc2ccc(SCCO)cc2)cc1`, the “% Inhibition @ 10 uM” value is -1.77%.
`O=C(C1CCCN(c2ncnc3c2nc2n3CCCCC2)C1)N1CCN(C2CCCCC2)CC1` (centres unmarked): the “% Inhibition @ 10 uM” value is recorded as 4.39%.
For the compound `CCSc1nnc(-c2cccnc2)n1-c1ccc(Cl)c(C)c1`, the “% Inhibition @ 10 uM” value is recorded as -3.21%.
Regarding `O=C(O)c1c2c(nc3ccc(S(=O)(=O)N4CCC(C(=O)NC5CCCC5)CC4)cc13)CCCCC2`, the “% Inhibition @ 10 uM” value was -1.37%.
`O=C(c1ccccc1)c1cnc2cc3c(cc2c1N1CCN(Cc2ccccc2)CC1)OCO3`: the “% Inhibition @ 10 uM” value came out at 0.695%.
In the case of `CN(CCC#N)C12CC3CC(CC(C3)C1)C2`, the “% Inhibition @ 10 uM” value came out at 4.63%.
Take `O=C(NC12CC3CC(CC(C3)C1)C2)c1cc2nc(-c3ccco3)cc(C(F)(F)F)n2n1`: the “% Inhibition @ 10 uM” value is 0.221%.
As to `Cc1cccc(C)c1OCCCN1CCC(C)CC1`, the “% Inhibition @ 10 uM” value is given as 2.25%.
As for `O=C(O)C1CSC(c2ccccc2O)N1` (centres unmarked), the “% Inhibition @ 10 uM” value is listed as -1.45%.
Take `COCCNC(=O)C1CCCN(c2ncnc3onc(-c4ccc(F)cc4)c23)C1` (centres unmarked): the “% Inhibition @ 10 uM” value was -1.79%.
Consider `Cc1ccc(C2CCN(C(=O)c3cnn(C)c3C3CCN(C(=O)OC(C)(C)C)CC3)C2)cc1` (centres unmarked), for which the “% Inhibition @ 10 uM” value worked out at 5.09%.
`CC(C)c1ccc(/C=C/C(=O)Nc2cccc(C(F)(F)F)c2)cc1`: the “% Inhibition @ 10 uM” value is given as -2%.
Turning to `COc1cc(C(=O)NCCC(=O)NC2CCC(C)CC2)cc(OC)c1OC` (centres unmarked), the “% Inhibition @ 10 uM” value amounted to 1.16%.
With `Cc1c(C(=O)N2CCN(c3cccc(Cl)c3)CC2)cccc1[N+](=O)[O-]`, the “% Inhibition @ 10 uM” value is reported as 4.9%.
With `CN(C)/C=C/C=C1C(=O)CC(C)(C)CC1=O`, the “% Inhibition @ 10 uM” value turned out to be 1.62%.
With `Cc1ccc2c(c1)[C@@H]1CN(C)CC[C@H]1N2C(=O)C12CC3CC(CC(C3)C1)C2` the figure was 8.92%.
With `Cc1ccc(CNC(=O)C2(NS(=O)(=O)c3cccc4cccnc34)CCCCC2)cc1`, the “% Inhibition @ 10 uM” value was -0.692%.
With `CCn1c(C(=O)O)c(CC(=O)NC2CCCCCC2)c2ccccc21`, the “% Inhibition @ 10 uM” value is listed as -4.74%.
Take `Cc1ccc(NC(=O)c2cccc([N+](=O)[O-])c2)cc1C`: the “% Inhibition @ 10 uM” value was 0.135%.
